Experimental data from the supplement of paper PMC12217912.
The other results are listed elsewhere or left out. The full chains were built here from the parent and the listed change. Inactive controls read about 0.05.

B1: TEV protease; numbered along this chain (parent)
chain: MGESLFKGPRDYNPISSSICHLTNESDGHTTSLYGIGFGPFIITNKHLFRRNNGTLVVQSLHGVFKVKDTTTLQQHLVDGRDMIIIRMPKDFPPFPQKLKFREPQREERICLVTTNFQTKSMSSMVSDTSCTFPSGDGIFWKHWIQTKDGQCGSPLVSTRDGFIVGIHSASNFTNTNNYFTSVPKNFMELLTNQEAQQWVSGWRLNADSVLWGGHKVFMVKPEEPFQPVKEATQL

Variants of: B1
Assay: raw area under fraction-flipped curve 0-4 h after induction (AUC4h, not background-subtracted), DNA-recorder readout of cleavage of the substrate (dimensionless); higher = more cleavage of the substrate by the protease variant
Details: temperature: 34 °C; time window: 0-4 h after rhamnose induction
Protocol: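 In vivo DNA recorder in E. coli TOP10(DE3) ΔrhaA at 34 °C. Each TEVp single-site mutant (parent TEVp 0) is paired with a single-site variant of the 7-mer TEVs (canonical ENLYFQ|S). The substrate sits between flexible linkers in a Bxb1-sfGFP-TEVs-SsrA fusion, so cleavage stabilises Bxb1 and speeds flipping of a recombination array, read by NGS. The value is the raw area under the fraction-flipped curve over 0-4 h after rhamnose induction (AUC4h), with ≥20 reads per time point. It is not background-subtracted; inactive controls average about 0.047.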
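Also: Bxb1 expression induced with 0.2% (w/v) L-rhamnose at OD600 near 0.5, cultures sampled hourly, flipped fraction per protease–substrate barcode pair counted by paired-end Illumina sequencing.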

Row | Variant | area with substrate ENLAFQS | area with substrate ENLCFQS | area with substrate ENLDFQS | area with substrate ENLEFQS | area with substrate ENLFFQS | area with substrate ENLHFQS | area with substrate ENLKFQS | area with substrate ENLLFQS | area with substrate ENLNFQS | area with substrate ENLPFQS | area with substrate ENLQFQS | area with substrate ENLRFQS | area with substrate ENLSFQS | area with substrate ENLWFQS | area with substrate ENLVFQS | area with substrate ENLGFQS | area with substrate ENLIFQS
1 | MGESLFKGPRDYNPISSSICHLTNESDGHTTSLYGIGFGPFIITNKHLFRRNNGTLVVQSLHGVFKVKDTTTLQQELVDGRDMIIIRMPKDFPPFPQKLKFREPQREERICLVTTNFQTKSMSSMVSDTSCTFPSGDGIFWKHWIQTKDGQCGSPLVSTRDGFIVGIHSASNFTNTNNYFTSVPKNFMELLTNQEAQQWVSGWRLNADSVLWGGHKVFMVKPEEPFQPVKEATQL [H76E] | 0.0529 | 0.0697 | 0.0648 | 0.0622 | 0.0768 | 0.0545 | 0.0503 | 0.0105 | 0.0563 | 0.0611 | 0.056 | 0.0323 | 0.0701 | 0.0637 |  |  | 
2 | MGESLFKGPRDYNPISSSICHLTNESDGHTTSLYGIGFGPFIITNKHLFRRNNGTLVVQSLHGVFKVKDTTTLQQHLVDGRDMIIRRMPKDFPPFPQKLKFREPQREERICLVTTNFQTKSMSSMVSDTSCTFPSGDGIFWKHWIQTKDGQCGSPLVSTRDGFIVGIHSASNFTNTNNYFTSVPKNFMELLTNQEAQQWVSGWRLNADSVLWGGHKVFMVKPEEPFQPVKEATQL [I86R] | 0.0483 |  | 0.0455 |  | 0.0403 | 0.0465 | 0.046 | 0.0071 |  |  |  |  | 0.0455 |  | 0.0507 |  | 
3 | MGESLFKGPRDYNPISSSICHLTNESDGHTTSLYGIGFGPFIITNKHLFRRNNGTLVVQSLHGVFKVKDTTTLQQHLVDGRDMIIFRMPKDFPPFPQKLKFREPQREERICLVTTNFQTKSMSSMVSDTSCTFPSGDGIFWKHWIQTKDGQCGSPLVSTRDGFIVGIHSASNFTNTNNYFTSVPKNFMELLTNQEAQQWVSGWRLNADSVLWGGHKVFMVKPEEPFQPVKEATQL [I86F] | 0.0672 |  | 0.0603 |  | 0.0815 | 0.0594 | 0.0636 | 0.0532 |  | 0.0645 |  |  |  |  | 0.0664 | 0.0617 | 0.0642
4 | MGESLFKGPRDYNPISSSICHLTNESDGHTTSLYGIGFGPFIITNKHLFRRNNGTLVVQSLHGVFKVKDTTTLQQHLVDGRDMIIIRMPKDTPPFPQKLKFREPQREERICLVTTNFQTKSMSSMVSDTSCTFPSGDGIFWKHWIQTKDGQCGSPLVSTRDGFIVGIHSASNFTNTNNYFTSVPKNFMELLTNQEAQQWVSGWRLNADSVLWGGHKVFMVKPEEPFQPVKEATQL [F92T] | 0.0635 | 0.0926 | 0.0455 |  |  | 0.057 |  |  | 0.059 | 0.0554 | 0.0626 | 0.0595 | 0.0761 | 0.074 | 0.0784 | 0.053 | 0.0826
5 | MGESLFKGPRDYNPISSSICHLTNESDGHTTSLYGIGFGPFIITNKHLFRRNNGTLVVQSLHGVFKVKDTTTLQQHLGDGRDMIIIRMPKDFPPFPQKLKFREPQREERICLVTTNFQTKSMSSMVSDTSCTFPSGDGIFWKHWIQTKDGQCGSPLVSTRDGFIVGIHSASNFTNTNNYFTSVPKNFMELLTNQEAQQWVSGWRLNADSVLWGGHKVFMVKPEEPFQPVKEATQL [V78G] | 0.0649 | 0.0208 | 0.0689 | 0.0813 |  | 0.0611 |  | 0.051 | 0.0572 | 0.0519 | 0.0632 | 0.0491 | 0.0662 | 0.0827 | 0.0534 |  | 0.0818
